The RNAGym collection of RNA variant scans (doi:10.7554/elife.90254)
The source gives no read counts; variants with many changes may rest on few reads.

B1: OR4K15 (parent)
chain: GUUAACGGUCAUAGGCCAUGGAAACUAGGAGCACCAUUUCGCUGCCAGUGAAGAAAUGAACAAAGAAAAUCUGGGCCAGGCAGGCAUCAAAAGAAAUAGUCUUGCGCUCAACCAGAAAGUCUGUAAUCAUUUUAAGGGUA

Variants of: B1
Test: self-cleavage, relative activity (ratio to wild type); higher = more cleavage; in vitro, sequencing; the parent is a self-cleaving ribozyme

Variant | self-cleavage
U49G A89G U120A | 0.99
U49C U70C A117G | 0.57
A47U A96G A140G | 1.37
U49C A62G U72A A82G | 0.25
A51G U127C A140G | 1.06
A51G A52G U122C | 0.37
U49C A56U A116G | 0.19
U49A A98G G119A | 0.36
U49C C76A A90G | 0.09
U49A U72C A125G U133C | 0.1
A52G A54G A78G A89G A94G U120C | 0.09
A51G A66G A82G A96G | 0.97
A52G A60G C61U U87C U100C U124C | 1.7
U49C A82C A118C | 0.13
U49A A54U A59G A69U A98G U127C | 0.49
A47U A55G A94G | 0.55
U49A A68G U87C | 0.72
A51G A90G A118G | 0.34
A51G U57C A90G U102A C112U | 0
U49C A59G C128U | 1.63
A51U A64G A95G | 2.35
A51G A64U U72A A86G U87C A111G | 0.02
U49C A63G A140G | 0.59
A51G A52G A60G A116G G119A | 0.8

Variant | self-cleavage
A52G A64G A126G A129U A135G | 0.18
A52G A59G U103C | 1.15
A51G A114C A118G A140G | 0.01
A51U A66G A95G A117G | 0.83
A51G A94G A116G A126G | 0.41
A52G A64G G73U A89G A116U | 0.02
A52G A68G A134G | 1.24
G50U U108C A129G | 0.01
A52G A68G G73A U120C | 0.15
A51G A67G A69G A117G U130G | 1.25
A51U A55G A118G | 0.83
A51G U57C A94G A96C | 0.21
A51G U57G A82G A92G U108C A134G | 0
G48A C61U A94U A140U | 1.98
A47U A98G U122C | 0.11
U49C A116G A129G | 0.29
A51G U87C A118G A140G | 1.35
A47U A55G U108A | 0.02
U49A A59G A98G U103C | 0.05
A47U G48A A116G | 0.35
U49C A67G A135G | 1.89
U49C A54G A59G A67G U132C | 1.45
A51G A56G A92G U120C U131C | 0.42
A52G A62U A68G A96G | 1.36

Variant | self-cleavage
A51G A60U A92G A95G | 1.88
U49C U72C A78G | 0.34
A51G A78C A129U | 0.17
A52G A68G U133C | 1.13
U49C A92G U132C | 0.89
A51U A89G A126G | 1.04
U49C A92U A94G U139C | 1.67
A47U A59G A86G A117G U120C U139A | 0.27
A51U A89U G99A | 1.17
A47U A111G U122C | 0.01
U49C U72A U100C | 0.63
A51G A59G U127A | 1.07
A52G A56G U57A A135G | 1.15
A51G A98G U100C U124C | 0.55
A51G A110G U133C | 0.17
A52G A68G U72C A91G A116G U130C | 0.08
A51U A52G A67G U97C | 0.87
A52G A55G U70C | 0.26
A47U A89G U131C | 0.59
A51U A54G A55G A69G U103C | 1.18
A51C U72C A110U A111G A118G | 0.02
A51U A59U U108A | 0.09
A52G A68G U70C A110G A116G | 0.13
G48U A64G A96G | 1.88

Variant | self-cleavage
U49C U103C A114G | 0.06
A51G U57C U70C U102C | 1.43
U49A U57G U108G | 0.02
A51G A54G A82C A91G | 0.07
A52G A59G A63G A68G U87A A92G | 1.87
A51G A52G A92G A126G | 0.86
U49C A118G U120C U122C | 0.3
A51G A126G U127A | 1.53
A51G U87C U130C | 0.41
A51G A78U U132C | 0.4
G48A A60G G74C | 0.04
A52G A55G A118G | 1.18
A51G A78G A95G U102A | 0.14
A47U G79A A96G | 0.13
A52G A63G A91U A117G | 2.37
U49A A90G A92U | 0.89
A51G A118G U122C | 1.34
A52G A62G A89G A117U U122C U130C | 1
A51G U102A U103C | 0.08
A51U A94G U102C | 1.97
A47U U57C A92G U122C | 0.28
U49A A95U A96G | 0.72
U49C A59G A90G | 1.75
A51U U102A A135G | 0.83

Variant | self-cleavage
A47U A68U A116G | 1.01
A52G A59G A67G U70C A95G A135G | 0.46
A47U A111G A125G | 0.01
A51G A64G A126G | 1.17
A51G U87C A114U | 0.14
A51U A52U A55G A68G | 1.09
A47U A78U G84U U127C | 0.11
A52G A55U A63G A90U | 2.01
U49C A60G A82U A89G U100C U108C | 0.01
U49C U57C A67G | 0.95
A51G A59C A94G C101G | 0.06
A51U G83A U103C | 0.33
U49A U108C A114U | 0.02
A51G A56G G123A | 0.63
U49C A64U A92G | 1.11
U49C A60G A86U | 1.49
G48U A54G U102C | 2.14
A47U A69G U127C | 0.24
U49G U72C A117G | 0.18
A52G A59G U100A | 0.16
U49C A95G U102C | 2.95
A51G A60G A118G U122C U131C | 0.46
U49C A90G U124C | 0.33
A51U A66G A78G A111G U130C | 0.02

Variant | self-cleavage
A52G A59U A63G A89G | 0.48
A51G G74A U100C A118G A140G | 0.11
U49C A94G A117G | 1.24
U49G A66G U139C | 0.69
A51C A92G A114G | 0.25
A51G A56G A86G U87A | 1.48
A52G A63U G80U | 0.18
A52G A62G U70C U131C | 0.11
A47U A60G U130A U132C | 0.56
U49A U87C A116G | 0.67
U49C A62G G75A | 0.11
U49C A51U A55G U87C C88U | 0.56
U49A U132C A140G | 1.09
U49C A66G U139A | 1.07
G48A A67G U122C | 0.54
A51G A67G A96U A134G | 1.9
A51G A54G U103C U139C | 1.06
A47U A64U A111G | 0.01
U49C A95G A118U A135G | 0.63
U49C U72A A96G A125U | 0.27
A52G A62G A66G C85U | 0.65
A51G A67G A111U | 0.22
U49C A62G A92G A98G | 0.41
A52C A59G A67G U87C C88A A92G A117G U132C | 2.22

Variant | self-cleavage
A51G A64G A67G | 0.92
A52G A68G A92U U108C | 0
A52G A56G A67G | 1.69
A47U A67G A114U | 0.08
U49C A59G U87C | 0.57
A51G A69G U70C | 0.34
A51G A52G U70C A90U U133C G138A U139C | 0.56
A52G A62G G74U G83A U120C | 0.06
A51G A56G A64U U132C | 0.74
A47U A52G C76U U87A U131C A135G | 0.04
U49C A67G A86G U87A A126G | 0.95
U49C A51C A66G U100A U131C | 0.07
A51G A68G A129G | 0.99
A47U U57C A63G A64G U102A | 0.2
A51C A66G A117G | 0.83
U49C U57A A78U | 0.19
A47U U57C U87C A129G U131C | 0.25
A51G A110G A114G | 0.09
A47U U70C A125G | 0.08
U49A A114U U122A | 0
A51G U102C U122C | 1.56
A51U A56G C81U | 0.57
A51U A114U U132A | 0.12
